# Some of the results follow. Repeats are few or missing, and single values can be far off.
# What was measured:
# Experiment in all cases: cell count relative to DMSO control; melanoma cells; higher = more viable cells
# Details in all cases: library dose: standard library concentration; 72 h
# [1] = system: G361
# [2] = system: IPC-298
# [3] = system: IST-MEL1
# [4] = system: LB2518-MEL
# [5] = system: LOXIMVI
# [6] = system: MEL-HO
# [7] = system: MZ2-MEL
# [8] = system: MeWo
# [9] = system: RPMI7951
# [10] = system: RVH-421
# [11] = system: SkMel28
# [12] = system: SkMel2
# [13] = system: SkMel30
# [14] = system: SkMel5
# [15] = system: UACC257
# [16] = system: UACC62
# [17] = system: WM115
# [18] = system: WM1716
# [19] = system: WM1745
# [20] = system: WM3526
# 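Also: cells treated in 1,536-well plates, then fixed and DAPI-stained, with nuclei counted from automated high-throughput microscope images.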
Compound,cell count [1] [%],cell count [2] [%],cell count [3] [%],cell count [4] [%],cell count [5] [%],cell count [6] [%],cell count [7] [%],cell count [8] [%],cell count [9] [%],cell count [10] [%],cell count [11] [%],cell count [12] [%],cell count [13] [%],cell count [14] [%],cell count [15] [%],cell count [16] [%],cell count [17] [%],cell count [18] [%],cell count [19] [%],cell count [20] [%]
"COc1cc([C@@H]2c3cc4c(cc3[C@@H](O[C@@H]3O[C@@H]5CO[C@@H](C)O[C@H]5[C@H](O)[C@H]3O)[C@H]3COC(=O)[C@H]23)OCO4)cc(OC)c1O [etoposide] + Cn1sc(=O)n(Cc2ccccc2)c1=O [TDZD-8] (first compound 0.1 µM, partner dose 2 µM)",72.3,57.2,104,71.5,64,93.5,72.1,81,60.5,75.7,74.3,74.4,72,71.6,90.4,54.5,86.5,60,108,78.7
"C[C@]1(O)C[C@@H](c2nc(-c3ccc4ccc(-c5ccccc5)nc4c3)c3c(N)nccn32)C1 + Cn1nnc2c(C(N)=O)ncn2c1=O [temozolomide] (first compound 2 µM, partner dose 10 µM)",88.1,96,83.5,91.7,63.9,107,108,85.6,65.1,120,43.1,88.1,70.1,72,93.9,50.3,91.7,51.1,64.8,63
"COc1cc([C@@H]2c3cc4c(cc3[C@@H](O[C@@H]3O[C@@H]5CO[C@@H](C)O[C@H]5[C@H](O)[C@H]3O)[C@H]3COC(=O)[C@H]23)OCO4)cc(OC)c1O [etoposide] + CN(NC(=O)CC(=O)NN(C)C(=S)c1ccccc1)C(=S)c1ccccc1 [STA4783] (first compound 0.1 µM, partner dose 0.03 µM)",39.5,68.5,35.5,26,61.5,86.8,97.8,18.5,77.8,67,27.3,59.9,90.9,44.7,87.2,35.6,21.5,67.3,55.1,112
"Cn1cnc2c(F)c(Nc3ccc(Br)cc3Cl)c(C(=O)NOCCO)cc21 [selumetinib] + C#Cc1cccc(Nc2ncnc3cc(OCCOC)c(OCCOC)cc23)c1 [erlotinib] (first compound 0.075 µM, partner dose 4 µM)",39.2,43.7,85.9,55.8,91.7,68.6,45.4,52.8,71.8,81.7,55.7,33.1,31.5,56,102,43,56.9,69,46.3,47.1
"C[C@]1(O)C[C@@H](c2nc(-c3ccc4ccc(-c5ccccc5)nc4c3)c3c(N)nccn32)C1 + CO[C@@H]1[C@H](N(C)C(=O)c2ccccc2)C[C@H]2O[C@]1(C)n1c3ccccc3c3c4c(c5c6ccccc6n2c5c31)C(=O)NC4 [Midostaurin] (first compound 2 µM, partner dose 0.4 µM)",60.6,63.6,76.7,67.9,46.1,78.1,71,59.9,51.6,91.4,61.9,45.8,69.1,43.1,57.2,52.2,49.8,46.4,40.9,57.5
"COc1cc([C@@H]2c3cc4c(cc3[C@@H](O[C@@H]3O[C@@H]5CO[C@@H](C)O[C@H]5[C@H](O)[C@H]3O)[C@H]3COC(=O)[C@H]23)OCO4)cc(OC)c1O [etoposide] + CS(=O)(=O)CCNCc1ccc(-c2ccc3ncnc(Nc4ccc(OCc5cccc(F)c5)c(Cl)c4)c3c2)o1 [lapatinib] (first compound 0.1 µM, partner dose 4 µM)",68,50.5,75.1,57,94,78.8,57.9,70.5,65.6,136,72.2,48.1,71.5,56.1,81.8,43.8,66.9,62.9,66.9,71.8
"C[C@]1(O)C[C@@H](c2nc(-c3ccc4ccc(-c5ccccc5)nc4c3)c3c(N)nccn32)C1 + CNC(=O)c1cc(Oc2ccc(NC(=O)Nc3ccc(Cl)c(C(F)(F)F)c3)cc2)ccn1 [sorafenib] (first compound 2 µM, partner dose 2 µM)",74.3,84.7,111,77.8,143,93.3,89,68.4,56.4,98.7,66,62,88,82.4,67.1,85.8,96.7,84.1,69.7,59.7
"COc1cc([C@@H]2c3cc4c(cc3[C@@H](O[C@@H]3O[C@@H]5CO[C@@H](C)O[C@H]5[C@H](O)[C@H]3O)[C@H]3COC(=O)[C@H]23)OCO4)cc(OC)c1O [etoposide] + CN1CCN(c2ccc3nc(-c4c(N)c5c(F)cccc5[nH]c4=O)[nH]c3c2)CC1 [Dovitinib] (first compound 0.1 µM, partner dose 0.5 µM)",44.6,48.2,66.3,49.1,81.5,65.1,30.6,37.8,74.9,61.3,57.4,48.7,74.3,59.8,64,57.4,59.9,50.2,45.8,73.2
"C[C@]1(O)C[C@@H](c2nc(-c3ccc4ccc(-c5ccccc5)nc4c3)c3c(N)nccn32)C1 + NC(=O)Nc1cc(-c2cccc(F)c2)sc1C(=O)N[C@H]1CCCNC1 [AZD7762] (first compound 2 µM, partner dose 0.1 µM)",79.2,100,84.5,53.6,53.2,76.4,107,71.1,41.9,149,47.3,84.7,79.1,91.7,100,61.9,60.4,69.8,51.6,66
"CCN(CC)CCNC(=O)c1c(C)[nH]c(/C=C2\C(=O)Nc3ccc(F)cc32)c1C [sunitinib] + C[C@@H]1CCN(C(=O)CC#N)C[C@@H]1N(C)c1ncnc2[nH]ccc12 [CP690550] (first compound 2 µM, partner dose 5 µM)",85.4,93.9,83.3,57.3,75.7,95.8,104,46.4,85,92.1,63.9,63.5,68.6,52.5,97,61.9,50.3,92.9,51.7,62.2
"Cn1cnc2c(F)c(Nc3ccc(Br)cc3Cl)c(C(=O)NOCCO)cc21 [selumetinib] + Cc1nc(Nc2ncc(C(=O)Nc3c(C)cccc3Cl)s2)cc(N2CCN(CCO)CC2)n1 [dasatanib] (first compound 0.075 µM, partner dose 0.02 µM)",60.9,45.2,55.5,53.7,38.7,65,46.6,68,39.9,72.8,55.5,55.7,59.4,77.2,96.7,70.3,48.8,51.8,55.3,61.2
"Cn1cnc2c(F)c(Nc3ccc(Br)cc3Cl)c(C(=O)NOCCO)cc21 [selumetinib] + Cc1cc(N2CCOCC2)cc2[nH]c(-c3c(NC[C@@H](O)c4cccc(Cl)c4)cc[nH]c3=O)nc12 [BMS536924] (first compound 0.075 µM, partner dose 1 µM)",46,50.9,80.8,26.4,103,76.3,53.9,56.9,123,79.9,42.5,14.7,58.6,63.6,89.7,69.2,63.4,77.2,45.5,63.4
"CCN(CC)CCNC(=O)c1c(C)[nH]c(/C=C2\C(=O)Nc3ccc(F)cc32)c1C [sunitinib] + CO[C@H]1C[C@@H]2CC[C@@H](C)[C@@](O)(O2)C(=O)C(=O)N2CCCC[C@H]2C(=O)O[C@H]([C@H](C)C[C@@H]2CC[C@@H](OCCO)[C@H](OC)C2)CC(=O)[C@H](C)/C=C(\C)[C@@H](O)[C@@H](OC)C(=O)[C@H](C)C[C@H](C)/C=C/C=C/C=C/1C [everolimus] (first compound 2 µM, partner dose 0.1 µM)",37.1,40.7,78.7,33.1,109,57.5,52.7,36.1,59.2,67.4,22.4,51.7,52.5,25.7,86.2,44,38.7,72.7,48.2,36
"CCN(CC)CCNC(=O)c1c(C)[nH]c(/C=C2\C(=O)Nc3ccc(F)cc32)c1C [sunitinib] + CC(C)(C)c1cnc(CSc2cnc(NC(=O)C3CCNCC3)s2)o1 [SNS-032] (first compound 2 µM, partner dose 0.05 µM)",65.6,82.1,87.7,38.8,69.3,83.4,74.5,46.3,10.3,91.4,30.2,24.5,47.4,27,81.3,50.3,34.2,58.4,31.6,42.7
"Cn1cnc2c(F)c(Nc3ccc(Br)cc3Cl)c(C(=O)NOCCO)cc21 [selumetinib] + CC(=O)c1c(C)c2cnc(Nc3ccc(N4CCNCC4)cn3)nc2n(C2CCCC2)c1=O [palbociclib] (first compound 0.075 µM, partner dose 0.2 µM)",46.1,38.7,65.2,44.1,71.5,67.4,43.4,43.6,63.5,55.5,33.1,32.2,43.6,49.3,76,46.2,41.3,34.3,64.2,37.5
"COc1cc([C@@H]2c3cc4c(cc3[C@@H](O[C@@H]3O[C@@H]5CO[C@@H](C)O[C@H]5[C@H](O)[C@H]3O)[C@H]3COC(=O)[C@H]23)OCO4)cc(OC)c1O [etoposide] + C[C@@H]1CCN(C(=O)CC#N)C[C@@H]1N(C)c1ncnc2[nH]ccc12 [CP690550] (first compound 0.1 µM, partner dose 5 µM)",126,89.8,103,79,110,98.6,99.6,90.3,109,119,95.6,70.5,104,126,91.8,81.2,76.1,80.9,84.1,129

# — the supplement of paper PMC4604168 (melanoma cell lines)
